{"source": "paper PMC9911399", "about": "“Two distinct binding modes provide the RNA-binding protein RbFox with extraordinary sequence specificity”", "binders": {"B1": {"name": "AAGGUGU (DNA:RNA)", "RNA": "GGGAGACCGGAAUUCAGAUUGUCCAAGGUGUUUAAAUCCCGUCGUAGCCACCA", "DNA 1": "CAATCTGAATTCCGGTCTCCC", "DNA 2": "TGGTGGCTACGACGGGATT"}, "B2": {"name": "GGCCCAU (DNA:RNA)", "RNA": "B1 RNA with A25G, A26G, G27C, G28C, U29C, G30A", "DNA 1": "CAATCTGAATTCCGGTCTCCC", "DNA 2": "TGGTGGCTACGACGGGATT"}, "B3": {"name": "AGAGCGA (DNA:RNA)", "RNA": "B1 RNA with A26G, G27A, U29C, U31A", "DNA 1": "CAATCTGAATTCCGGTCTCCC", "DNA 2": "TGGTGGCTACGACGGGATT"}, "B4": {"name": "GCUCUUG (DNA:RNA)", "RNA": "B1 RNA with A25G, A26C, G27U, G28C, G30U, U31G", "DNA 1": "CAATCTGAATTCCGGTCTCCC", "DNA 2": "TGGTGGCTACGACGGGATT"}, "B5": {"name": "CUUGCUC (DNA:RNA)", "RNA": "B1 RNA with A25C, A26U, G27U, U29C, G30U, U31C", "DNA 1": "CAATCTGAATTCCGGTCTCCC", "DNA 2": "TGGTGGCTACGACGGGATT"}, "B6": {"name": "AUUAACA (DNA:RNA)", "RNA": "B1 RNA with A26U, G27U, G28A, U29A, G30C, U31A", "DNA 1": "CAATCTGAATTCCGGTCTCCC", "DNA 2": "TGGTGGCTACGACGGGATT"}, "B7": {"name": "UGUCCAC (DNA:RNA)", "RNA": "GGGAGACCGGAAUUCAGAUUGUCCUGUCCACUUAAAUCCCGUCGUAGCCACCA", "DNA 1": "CAATCTGAATTCCGGTCTCCC", "DNA 2": "TGGTGGCTACGACGGGATT"}, "B8": {"name": "CUCCACA (DNA:RNA)", "RNA": "B7 RNA with U25C, G26U, U27C, C29A, A30C, C31A", "DNA 1": "CAATCTGAATTCCGGTCTCCC", "DNA 2": "TGGTGGCTACGACGGGATT"}, "B9": {"name": "UUUCGAU (DNA:RNA)", "RNA": "B7 RNA with G26U, C29G, C31U", "DNA 1": "CAATCTGAATTCCGGTCTCCC", "DNA 2": "TGGTGGCTACGACGGGATT"}, "B10": {"name": "AUGCCGG (DNA:RNA)", "RNA": "B1 RNA with A26U, G28C, U29C, U31G", "DNA 1": "CAATCTGAATTCCGGTCTCCC", "DNA 2": "TGGTGGCTACGACGGGATT"}, "B11": {"name": "AUAAAGC (DNA:RNA)", "RNA": "B1 RNA with A26U, G27A, G28A, U29A, U31C", "DNA 1": "CAATCTGAATTCCGGTCTCCC", "DNA 2": "TGGTGGCTACGACGGGATT"}, "B12": {"name": "AACUGUC (DNA:RNA)", "RNA": "B1 RNA with G27C, G28U, U29G, G30U, U31C", "DNA 1": "CAATCTGAATTCCGGTCTCCC", "DNA 2": "TGGTGGCTACGACGGGATT"}, "B13": {"name": "GUGUUGC (DNA:RNA)", "RNA": "B1 RNA with A25G, A26U, G28U, U31C", "DNA 1": "CAATCTGAATTCCGGTCTCCC", "DNA 2": "TGGTGGCTACGACGGGATT"}, "B14": {"name": "UAUUCGA (DNA:RNA)", "RNA": "B7 RNA with G26A, C28U, A30G, C31A", "DNA 1": "CAATCTGAATTCCGGTCTCCC", "DNA 2": "TGGTGGCTACGACGGGATT"}, "B15": {"name": "CAAACUG (DNA:RNA)", "RNA": "B1 RNA with A25C, G27A, G28A, U29C, G30U, U31G", "DNA 1": "CAATCTGAATTCCGGTCTCCC", "DNA 2": "TGGTGGCTACGACGGGATT"}, "B16": {"name": "CGCGUAA (DNA:RNA)", "RNA": "B1 RNA with A25C, A26G, G27C, G30A, U31A", "DNA 1": "CAATCTGAATTCCGGTCTCCC", "DNA 2": "TGGTGGCTACGACGGGATT"}, "B17": {"name": "UCGCGGA (DNA:RNA)", "RNA": "B1 RNA with A25U, A26C, G28C, U29G, U31A", "DNA 1": "CAATCTGAATTCCGGTCTCCC", "DNA 2": "TGGTGGCTACGACGGGATT"}, "B18": {"name": "UCUUUGG (DNA:RNA)", "RNA": "B1 RNA with A25U, A26C, G27U, G28U, U31G", "DNA 1": "CAATCTGAATTCCGGTCTCCC", "DNA 2": "TGGTGGCTACGACGGGATT"}, "B19": {"name": "ACAAACC (DNA:RNA)", "RNA": "B1 RNA with A26C, G27A, G28A, U29A, G30C, U31C", "DNA 1": "CAATCTGAATTCCGGTCTCCC", "DNA 2": "TGGTGGCTACGACGGGATT"}, "B20": {"name": "UGCCUAC (DNA:RNA)", "RNA": "B7 RNA with U27C, C29U", "DNA 1": "CAATCTGAATTCCGGTCTCCC", "DNA 2": "TGGTGGCTACGACGGGATT"}, "B21": {"name": "AACACUG (DNA:RNA)", "RNA": "B1 RNA with G27C, G28A, U29C, G30U, U31G", "DNA 1": "CAATCTGAATTCCGGTCTCCC", "DNA 2": "TGGTGGCTACGACGGGATT"}, "B22": {"name": "CUACUUU (DNA:RNA)", "RNA": "B1 RNA with A25C, A26U, G27A, G28C, G30U", "DNA 1": "CAATCTGAATTCCGGTCTCCC", "DNA 2": "TGGTGGCTACGACGGGATT"}, "B23": {"name": "UUGUUGU (DNA:RNA)", "RNA": "B1 RNA with A25U, A26U, G28U", "DNA 1": "CAATCTGAATTCCGGTCTCCC", "DNA 2": "TGGTGGCTACGACGGGATT"}, "B24": {"name": "GAUCUAG (DNA:RNA)", "RNA": "B7 RNA with U25G, G26A, C29U, C31G", "DNA 1": "CAATCTGAATTCCGGTCTCCC", "DNA 2": "TGGTGGCTACGACGGGATT"}, "B25": {"name": "UAAUAUU (DNA:RNA)", "RNA": "B1 RNA with A25U, G27A, G28U, U29A, G30U", "DNA 1": "CAATCTGAATTCCGGTCTCCC", "DNA 2": "TGGTGGCTACGACGGGATT"}, "B26": {"name": "UUUGACA (DNA:RNA)", "RNA": "B7 RNA with G26U, C28G, C29A, A30C, C31A", "DNA 1": "CAATCTGAATTCCGGTCTCCC", "DNA 2": "TGGTGGCTACGACGGGATT"}, "B27": {"name": "CCCUCGA (DNA:RNA)", "RNA": "B1 RNA with A25C, A26C, G27C, G28U, U29C, U31A", "DNA 1": "CAATCTGAATTCCGGTCTCCC", "DNA 2": "TGGTGGCTACGACGGGATT"}, "B28": {"name": "GUCAUAC (DNA:RNA)", "RNA": "B7 RNA with U25G, G26U, U27C, C28A, C29U", "DNA 1": "CAATCTGAATTCCGGTCTCCC", "DNA 2": "TGGTGGCTACGACGGGATT"}, "B29": {"name": "CUCGGGG (DNA:RNA)", "RNA": "B1 RNA with A25C, A26U, G27C, U29G, U31G", "DNA 1": "CAATCTGAATTCCGGTCTCCC", "DNA 2": "TGGTGGCTACGACGGGATT"}, "B30": {"name": "CGAAAUU (DNA:RNA)", "RNA": "B1 RNA with A25C, A26G, G27A, G28A, U29A, G30U", "DNA 1": "CAATCTGAATTCCGGTCTCCC", "DNA 2": "TGGTGGCTACGACGGGATT"}, "B31": {"name": "CGGAGUC (DNA:RNA)", "RNA": "B7 RNA with U25C, U27G, C28A, C29G, A30U", "DNA 1": "CAATCTGAATTCCGGTCTCCC", "DNA 2": "TGGTGGCTACGACGGGATT"}}, "note": "Numbering of substitutions follows the chain as printed; changes in the protein carry UniProt numbers. The list shows a part of the results.", "data": [{"target": "T1, RBFOX1 RRM RbFoxmut (Fox-RRM*) (Homo sapiens, UniProt Q9NWB1 109-208, R118D;E147R;N151S;E152T)", "T1 sequence": "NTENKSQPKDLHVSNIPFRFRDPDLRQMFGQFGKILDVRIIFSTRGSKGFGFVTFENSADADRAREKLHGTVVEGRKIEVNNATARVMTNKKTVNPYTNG", "assay": "EMSA; HiTS-Eq, 1 nM pool, 10 min; buffer printed only for the single-RNA assays: 10 mM Tris pH 7.5, 150 mM NaCl, 3.4 mM EDTA, 0.001% NP-40, 30 C", "conditions": "tags: His6 N-terminal (pET28a); label: 5' 32P", "procedure,_shortened": "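These values rest on relative association constants, computed from read-count changes of each RNA species versus the control reaction and normalised to the cognate motif. Reads came from free RNA recovered by 8% native PAGE after purified RbFox RRM (wild type or mutant) at increasing concentrations was equilibrated for 10 min in 50 µL with 1 nM of a 5′-radiolabelled pool with 7 randomized nucleotides and DNA-annealed flanks.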", "values": [{"binder": "B1", "binding signal": "0.142 KA relative to UGCAUGU"}, {"binder": "B2", "binding signal": "0.0646 KA relative to UGCAUGU"}, {"binder": "B3", "binding signal": "0.0748 KA relative to UGCAUGU"}, {"binder": "B4", "binding signal": "0.087 KA relative to UGCAUGU"}, {"binder": "B5", "binding signal": "0.0577 KA relative to UGCAUGU"}, {"binder": "B6", "binding signal": "0.13 KA relative to UGCAUGU"}, {"binder": "B7", "binding signal": "0.0873 KA relative to UGCAUGU"}, {"binder": "B8", "binding signal": "0.0889 KA relative to UGCAUGU"}, {"binder": "B9", "binding signal": "0.0615 KA relative to UGCAUGU"}, {"binder": "B10", "binding signal": "0.0959 KA relative to UGCAUGU"}, {"binder": "B11", "binding signal": "0.0949 KA relative to UGCAUGU"}, {"binder": "B12", "binding signal": "0.113 KA relative to UGCAUGU"}, {"binder": "B13", "binding signal": "0.16 KA relative to UGCAUGU"}, {"binder": "B14", "binding signal": "0.0788 KA relative to UGCAUGU"}, {"binder": "B15", "binding signal": "0.059 KA relative to UGCAUGU"}, {"binder": "B16", "binding signal": "0.114 KA relative to UGCAUGU"}, {"binder": "B17", "binding signal": "0.0704 KA relative to UGCAUGU"}, {"binder": "B18", "binding signal": "0.108 KA relative to UGCAUGU"}, {"binder": "B19", "binding signal": "0.0766 KA relative to UGCAUGU"}, {"binder": "B20", "binding signal": "0.105 KA relative to UGCAUGU"}, {"binder": "B21", "binding signal": "0.0461 KA relative to UGCAUGU"}, {"binder": "B22", "binding signal": "0.0663 KA relative to UGCAUGU"}, {"binder": "B23", "binding signal": "0.21 KA relative to UGCAUGU"}, {"binder": "B24", "binding signal": "0.122 KA relative to UGCAUGU"}, {"binder": "B25", "binding signal": "0.0688 KA relative to UGCAUGU"}, {"binder": "B26", "binding signal": "0.0638 KA relative to UGCAUGU"}, {"binder": "B27", "binding signal": "0.0691 KA relative to UGCAUGU"}, {"binder": "B28", "binding signal": "0.1 KA relative to UGCAUGU"}, {"binder": "B29", "binding signal": "0.0788 KA relative to UGCAUGU"}, {"binder": "B30", "binding signal": "0.0581 KA relative to UGCAUGU"}, {"binder": "B31", "binding signal": "0.138 KA relative to UGCAUGU"}]}]}
